Measurements taken from patent US6953855B2 (priority 1998, dated 2005).

Target: T1, ganglion-type receptors (α3β4 subtype in the Shooter subclone of rat pheochromocytoma PC12 cells) (Rattus norvegicus, UniProt P04757+P12392)
T1 construct: endogenous in cells; host or cells: rat PC12 pheochromocytoma cells (Shooter subclone)
Assay: cell-based
Details: PC-12, read-out: agonist activity, % of nicotine's response (rat ganglion)

T1 sequence (P04757 26-499): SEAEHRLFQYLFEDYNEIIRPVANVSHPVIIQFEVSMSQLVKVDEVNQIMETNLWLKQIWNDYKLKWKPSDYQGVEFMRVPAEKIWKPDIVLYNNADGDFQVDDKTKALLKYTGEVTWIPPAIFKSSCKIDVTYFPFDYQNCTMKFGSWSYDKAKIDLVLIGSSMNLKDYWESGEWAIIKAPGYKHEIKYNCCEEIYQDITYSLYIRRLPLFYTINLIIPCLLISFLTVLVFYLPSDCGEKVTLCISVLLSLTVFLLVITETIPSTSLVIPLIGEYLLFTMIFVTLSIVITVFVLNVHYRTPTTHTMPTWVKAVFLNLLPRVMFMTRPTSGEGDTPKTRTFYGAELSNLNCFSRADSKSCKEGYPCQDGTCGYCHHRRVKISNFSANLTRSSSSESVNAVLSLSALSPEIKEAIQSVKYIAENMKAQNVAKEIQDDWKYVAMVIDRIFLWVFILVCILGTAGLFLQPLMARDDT
T1 sequence (P12392 22-495 limits assumed): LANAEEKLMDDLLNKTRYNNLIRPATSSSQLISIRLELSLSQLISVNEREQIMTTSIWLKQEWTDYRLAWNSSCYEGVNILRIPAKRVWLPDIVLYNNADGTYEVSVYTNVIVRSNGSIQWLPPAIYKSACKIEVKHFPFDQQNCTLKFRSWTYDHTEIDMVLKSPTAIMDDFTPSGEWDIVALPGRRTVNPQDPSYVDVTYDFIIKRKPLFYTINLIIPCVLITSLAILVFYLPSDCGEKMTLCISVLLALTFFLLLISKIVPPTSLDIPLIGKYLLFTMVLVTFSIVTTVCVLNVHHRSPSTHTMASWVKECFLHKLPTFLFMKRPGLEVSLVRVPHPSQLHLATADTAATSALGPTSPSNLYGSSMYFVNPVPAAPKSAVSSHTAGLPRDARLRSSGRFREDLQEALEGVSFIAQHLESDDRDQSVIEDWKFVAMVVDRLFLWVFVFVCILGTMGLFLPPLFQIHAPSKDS

SMILES	activation at 100 µM [%]
O=C(Nc1ccc(Br)cc1)OC1C2CCN(CC2)C1Cc1cccnc1 (centres unmarked) [Compound 1, 2-((3-pyridinyl)methyl)-1-azabicyclo[2.2.2]oct-3-yl N-(4-bromophenyl)carbamate]	1 to 19
O=C(Nc1ccc(F)cc1)OC1C2CCN(CC2)C1Cc1cccnc1 (centres unmarked) [Compound 3, 2-((3-pyridinyl)methyl)-1-azabicyclo[2.2.2]oct-3-yl N-(4-fluorophenyl)carbamate]	1 to 19
COc1ccc(NC(=O)OC2C3CCN(CC3)C2Cc2cccnc2)cc1 (centres unmarked) [Compound 4, 2-((3-pyridinyl)methyl)-1-azabicyclo[2.2.2]oct-3-yl N-(4-methoxyphenyl)carbamate]	1 to 19
CSc1ccc(NC(=O)OC2C3CCN(CC3)C2Cc2cccnc2)cc1 (centres unmarked) [Compound 5, 2-((3-pyridinyl)methyl)-1-azabicyclo[2.2.2]oct-3-yl N-(4-methylthiophenyl)carbamate]	1 to 19
O=C(NC1C2CCN(CC2)C1Cc1cccnc1)c1ccc(F)cc1 (centres unmarked) [Compound 8, N-(2-((3-pyridinyl)methyl)-1-azabicyclo[2.2.2]oct-3-yl)-4-fluorobenzamide]	1 to 19
O=C(NC1C2CCN(CC2)C1Cc1cccnc1)c1cc2ccccc2o1 (centres unmarked) [Compound 9, N-(2-((3-pyridinyl)methyl)-1-azabicyclo[2.2.2]oct-3-yl)benzofuran-2-carboxamide]	1 to 19
O=C(NC1C2CCN(CC2)C1Cc1cccnc1)c1ccc(Br)cc1 (centres unmarked) [Compound 10, N-(2-((3-pyridinyl)methyl)-1-azabicyclo[2.2.2]oct-3-yl)-4-bromobenzamide]	1 to 19
O=C(NC1C2CCN(CC2)C1Cc1cccnc1)c1ccccc1 (centres unmarked) [Compound 13, N-(2-((3-pyridinyl)methyl)-1-azabicyclo[2.2.2]oct-3-yl)benzamide]	1 to 19
COc1cccc(C(=O)NC2C3CCN(CC3)C2Cc2cccnc2)c1 (centres unmarked) [Compound 14, N-(2-((3-pyridinyl)methyl)-1-azabicyclo[2.2.2]oct-3-yl)-3-methoxybenzamide]	1 to 19
O=C(NC1C2CCN(CC2)C1Cc1cccnc1)c1cccc(Br)c1 (centres unmarked) [Compound 15, N-(2-((3-pyridinyl)methyl)-1-azabicyclo[2.2.2]oct-3-yl)-3-bromobenzamide]	1 to 19
O=C(Nc1ccccc1)NC1C2CCN(CC2)C1Cc1cccnc1 (centres unmarked) [Compound 16, N-phenyl-N′-(2-((3-pyridinyl)methyl)-1-azabicyclo[2.2.2]oct-3-yl)urea]	1 to 19
O=C(Nc1ccc(Oc2ccccc2)cc1)NC1C2CCN(CC2)C1Cc1cccnc1 (centres unmarked) [Compound 17, N-(4-phenoxyphenyl)-N′-(2-((3-pyridinyl)methyl)-1-azabicyclo[2.2.2]oct-3-yl)urea]	1 to 19
CSc1ccc(NC(=O)NC2C3CCN(CC3)C2Cc2cccnc2)cc1 (centres unmarked) [Compound 18, N-(4-methylthiophenyl)-N′-(2-((3-pyridinyl)methyl)-1-azabicyclo[2.2.2]oct-3-yl)urea]	1 to 19
O=C(Nc1cccc(F)c1)NC1C2CCN(CC2)C1Cc1cccnc1 (centres unmarked) [Compound 19, N-(3-fluorophenyl)-N′-(2-((3-pyridinyl)methyl)-1-azabicyclo[2.2.2]oct-3-yl)urea]	1 to 19
O=C(Nc1ccc(Br)cc1)NC1C2CCN(CC2)C1Cc1cccnc1 (centres unmarked) [Compound 20, N-(4-bromophenyl)-N′-(2-((3-pyridinyl)methyl)-1-azabicyclo[2.2.2]oct-3-yl)urea]	1 to 19
COc1ccccc1NC(=O)NC1C2CCN(CC2)C1Cc1cccnc1 (centres unmarked) [Compound 21, N-(2-methoxyphenyl)-N′-(2-((3-pyridinyl)methyl)-1-azabicyclo[2.2.2]oct-3-yl)urea]	1 to 19
COc1ccc(NC(=O)NC2C3CCN(CC3)C2Cc2cccnc2)c(OC)c1 (centres unmarked) [Compound 22, N-(2,4-dimethoxyphenyl)-N′-(2-((3-pyridinyl)methyl)-1-azabicyclo[2.2.2]oct-3-yl)urea]	1 to 19
O=C(Nc1ccc(Cl)c(Cl)c1)NC1C2CCN(CC2)C1Cc1cccnc1 (centres unmarked) [Compound 23, N-(3,4-dichlorophenyl)-N′-(2-((3-pyridinyl)methyl)-1-azabicyclo[2.2.2]oct-3-yl)urea]	1 to 19
COc1ccc(NC(=O)NC2C3CCN(CC3)C2Cc2cccnc2)cc1 (centres unmarked) [Compound 24, N-(4-methoxyphenyl)-N′-(2-((3-pyridinyl)methyl)-1-azabicyclo[2.2.2]oct-3-yl)urea]	1 to 19
CN(C)c1ccc(NC(=O)NC2C3CCN(CC3)C2Cc2cccnc2)cc1 (centres unmarked) [Compound 25, N-(4-dimethylaminophenyl)-N′-(2-((3-pyridinyl)methyl)-1-azabicyclo[2.2.2]oct-3-yl)urea]	1 to 19
CN(C(=O)Nc1ccccc1)C1C2CCN(CC2)C1Cc1cccnc1 (centres unmarked) [Compound 26, N-phenyl-N′-methyl-N′-(2-((3-pyridinyl)methyl)-1-azabicyclo[2.2.2]oct-3-yl)urea]	1 to 19
CN(C(=O)Nc1ccc(Br)cc1)C1C2CCN(CC2)C1Cc1cccnc1 (centres unmarked) [Compound 27, N-(4-bromophenyl)-N′-methyl-N′-(2-((3-pyridinyl)methyl)-1-azabicyclo [2.2.2]oct-3-yl)urea]	1 to 19
O=C(C=Cc1ccccc1)NC1C2CCN(CC2)C1Cc1cccnc1 (centres unmarked) [Compound 28, N-(2-((3-pyridinyl)methyl)-1-azabicyclo[2.2.2]oct-3-yl)3-phenylprop-2-enamide]	1 to 19
O=C(C=Cc1ccc(Cl)cc1)NC1C2CCN(CC2)C1Cc1cccnc1 (centres unmarked) [Compound 29, N-(2-((3-pyridinyl)methyl)-1-azabicyclo[2.2.2]oct-3-yl)-3-(4-chlorophenyl)prop-2-enamide]	1 to 19
O=C(C=Cc1ccc(Br)cc1)NC1C2CCN(CC2)C1Cc1cccnc1 (centres unmarked) [Compound 30, N-(2-((3-pyridinyl)methyl)-1-azabicyclo[2.2.2]oct-3-yl)-3-(4-bromophenyl)prop-2-enamide]	1 to 19
O=C(C=Cc1cccc(O)c1)NC1C2CCN(CC2)C1Cc1cccnc1 (centres unmarked) [Compound 31, N-(2-((3-pyridinyl)methyl)-1-azabicyclo[2.2.2]oct-3-yl)-3-(3-hydroxyphenyl)prop-2-enamide]	1 to 19
COc1cccc(C=CC(=O)NC2C3CCN(CC3)C2Cc2cccnc2)c1 (centres unmarked) [Compound 32, N-(2-((3-pyridinyl)methyl)-1-azabicyclo[2.2.2]oct-3-yl)-3-(3-methoxyphenyl)prop-2-enamide]	1 to 19
O=C(C=Cc1ccccc1F)NC1C2CCN(CC2)C1Cc1cccnc1 (centres unmarked) [Compound 33, N-(2-((3-pyridinyl)methyl)-1-azabicyclo[2.2.2]oct-3-yl)-3-(2-fluorophenyl)prop-2-enamide]	1 to 19
O=C(C=Cc1ccccc1O)NC1C2CCN(CC2)C1Cc1cccnc1 (centres unmarked) [Compound 34, N-(2-((3-pyridinyl)methyl)-1-azabicyclo[2.2.2]oct-3-yl)-3-(2-hydroxyphenyl)prop-2-enamide]	1 to 19
